Experimental findings from patent US20220220212A1 (RESEARCH FOUNDATION FOR THE STATE UNIVERSITY OF NEW YORK, published 2022) are described below.

Assay [1] deals with T1, mouse CCR2 on cells (RAW 264.7 murine macrophages, 4T1 breast cancer cells) (murine, UniProt P51683 1-373). Kind of assay: cell-based or functional assay.
Assay [2] addresses T2, biotinylated N-terminal domain CCR2 peptide (murine, biotinylated (position not given)).
T2 construct: Bought from ABclonal; also called CCR2 N-terminal domain; CCR2 N-terminus
T2 peptide: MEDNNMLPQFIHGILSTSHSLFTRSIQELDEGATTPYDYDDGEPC
Nature of the assay: ELISA; biotinylated NTD peptide on NeutrAvidin plate, serially diluted scFv, anti-flag HRP detection, 1:1 Hill fit. The protocol:
(§1) Nunc MaxiSorp 96-well plates were coated with NeutrAvidin at 5 μg/mL and incubated overnight at 4° C. The plate was thoroughly washed with 0.1% PBS-Tween (PBST), and 5 μg/mL biotinylated N-terminal domain CCR2 peptide ([…] (SEQ ID NO:58); ABclonal, Woburn, Mass.) added and incubated for 1 h at room temperature. The wells were washed with 0.1% PBST and then blocked with casein blocking buffer for 1 h at room temperature. The wells were washed with 0.1% PBST followed by incubation of serially diluted scFv for 1 h at room temperature before being washed five times with 0.1% PBST. Washes were followed by the addition of 100 uL of the respective horse-radish peroxidase (HRP)-linked monoclonal antibody (mAb) for 1 h at room temperature with rocking. An anti-M13 mAb was used to detect phages (#27-9421-01, GE healthcare, Chicago, Ill.) and an anti-flag mAb was used to detect scFv (#A8592, Sigma Aldrich, St. Louis, Mo.). The wells were washed with 0.1% PBST followed by the addition of TMB-ELISA substrate. After 10 min incubation, 2 M H₂SO₄ was added to stop the reaction. The absorbance was measured at 450 nm with a FilterMax F3 & F5 multi-mode microplate reader (Molecular Devices, Sunnyvale, Calif.). A 1:1 binding ratio Hill model was used to fit the binding interaction data.

The target of assay [3] is T1, mouse CCR2 on cells (RAW 264.7 murine …). Kind of assay: flow cytometry on RAW 264.7 cells, DyLight 650 labelled scFv. As to the method: (§2) FIG. 13. […] The liposomes were incubated with DyLight 650 NHS Ester labeled 58C-scFv at 4° C. overnight. Cells were detached with 5 mM EDTA and re-suspended in PBS to a concentration of 50,000 cells per 300 μL. The cells were incubated with various dilutions of DyLight 650 NHS Ester labeled 58C-scFv (free, low degree of valency, or high degree of valency) for 1 h at 4° C. Cells were washed three times with 5% BSA and analyzed in the APC channel of a MACSQuant Analyzer 10 flow cytometer (Miltenyi Biotec, Bergisch Gladbach, Germany).
Cells were detached with 5 mM EDTA and re-suspended in PBS to a concentration of 50,000 cells per 300 μL. Cells were plated in a 48-well plate and incubated for 30 min at 4° C. After removing the PBS solution, the cells were incubated with various dilutions of DyLight 650 NHS Ester labeled 58C-scFv for 1 h at 4° C. Cells were washed three times with 5% BSA, detached with EDTA, and analyzed in the APC channel of a MACSQuant Analyzer 10 flow cytometer (Miltenyi Biotec, Bergisch Gladbach, Germany).

Assay [4] has the same target. Kind of assay: flow cytometry on RAW 264.7 cells, DyLight 650 labelled scFv on liposomes. The protocol: as §2
(In general: A flow cytometer gives signals particle by particle.)

Assay [5] shares this target. Kind of assay: flow cytometry on RAW 264.7 cells; reference: free 58C-scFv monomer. As to the method:
as §2

For assay [6] the target is unchanged. Kind of assay: flow cytometry on RAW 264.7 cells; reference: low valency 58C-scFv on liposomes. As to the method:
as §2

The target of assay [7] is T2, biotinylated N-terminal domain CCR2 …. Nature of the assay: phage ELISA on the N-terminal peptide. As to the method: as §1
(An ELISA detects its analyte on a solid surface through an enzyme-linked reagent.)

B1: 58C-scFv (scFv)
scFv: DYKDDDDKL[about 100 residues skipped]GKSSGSGSESKASEVQLLESGAEVKKPGASVKVSCKTSGYTFTTYDIYWMRLATGQRLEWMGWVNPDNGKTDYAQKFQGRVTISRDSSINTVFMELSNLRLEDTAIYFCARALTRWQQSPLGYWGQGTLVTVSSVEASAAALDYKDDDDKLDHHHHHH
notes: For flow cytometry the protein was labelled with DyLight 650 NHS Ester; also called NTD-scFv; scFv 58C
Consider B1, for which, in assay [1], the “M1/M2 ratio over negative control (IL-6/Arg-1), RAW 264.7, RT-PCR” value stood at 340000 fold; the “M1/M2 ratio over negative control (IL-6/Mgl2), RAW 264.7, RT-PCR” value came to 1.7e+06 fold; the “M1/M2 ratio over negative control (iNOS/Arg-1), RAW 264.7, RT-PCR” value was 10000 fold; the “M1/M2 ratio over negative control (iNOS/Mgl2), RAW 264.7, RT-PCR” value came to 51000 fold. In assay [2], the Kd is 59.8 nM. In addition, the Kd in assay [3] is 1270 nM.

B2: low valency 58C-scFv attached to liposomes (other)
scFv: DYKDDDDKL[about 100 residues skipped]GKSSGSGSESKASEVQLLESGAEVKKPGASVKVSCKTSGYTFTTYDIYWMRLATGQRLEWMGWVNPDNGKTDYAQKFQGRVTISRDSSINTVFMELSNLRLEDTAIYFCARALTRWQQSPLGYWGQGTLVTVSSVEASAAALDYKDDDDKLDHHHHHH
modifications: C-terminal hexa-histidine tag bound to DGS-NTA(Ni) lipid of the liposome; DyLight 650 NHS Ester label
notes: also called low degree of valency; low ligand density
Molecule B2 registered a Kd in assay [4] of 278 nM.

B3: high valency 58C-scFv attached to liposomes (other)
scFv: DYKDDDDKL[about 100 residues skipped]GKSSGSGSESKASEVQLLESGAEVKKPGASVKVSCKTSGYTFTTYDIYWMRLATGQRLEWMGWVNPDNGKTDYAQKFQGRVTISRDSSINTVFMELSNLRLEDTAIYFCARALTRWQQSPLGYWGQGTLVTVSSVEASAAALDYKDDDDKLDHHHHHH
modifications: C-terminal hexa-histidine tag bound to DGS-NTA(Ni) lipid of the liposome; DyLight 650 NHS Ester label
notes: also called high degree of valency; high ligand density
In the case of B3, the “fold increase in binding affinity against free 58C-scFv” value in assay [5] worked out at 8 fold. For the same molecule, the “fold increase in binding affinity against the low valency formulation” value in assay [6] was around 1.75 fold. For the same molecule, in assay [4], binding was put at a Kd of 159 nM.

B4: phage clone 37B (scFv)
scFv: LEVQLVESGAEVKKPGASVKVSCKASGYTFTSYYMHWVRQAPGQGLEWMGIINPSGGSTSYAQKFQGRVTMTRDTSTSTVYMELSSLRSEDTAVYYCARDGNWFDPWGQGTLVTVSSGEGKSSGSGSESKAS[about 100 residues skipped]TFGGGTKLDIK
notes: also called 37B-scFv
On to B4, for which, in assay [7], the binding result is “binds”.

B5: phage clone 58C (scFv)
scFv: [about 100 residues skipped]GKSSGSGSESKASEVQLLESGAEVKKPGASVKVSCKTSGYTFTTYDIYWMRLATGQRLEWMGWVNPDNGKTDYAQKFQGRVTISRDSSINTVFMELSNLRLEDTAIYFCARALTRWQQSPLGYWGQGTLVTVSS
notes: also called 58C (phage)
As to B5, the binding result in assay [7] was “binds”.

As usually defined, the Kd is the equilibrium constant for the complex coming apart. A low value points to higher affinity.
